The list shows a part of the results. These are further read-outs of the screen, such as a control signal, another cell line or another target. No call is given for them. The list favours compounds with an active or inconclusive main result.

This assay is described as follows: growth inhibition of WT strain, primary screen, mitochondrial fusion inhibitor project, WT and mutant strains, chemical genetic (AID 1362). Note: tested in S. cerevisiae. The settings on record: mitochondrial fusion phenotypic screen, at 10 µM.
Broadly, the inhibition is the change of the read-out against control, counted positive when it falls. As to `Brc1ccc2c(c1)C(OC1CN3CCC1CC3)c1ccccc1CS2` (stereo not given), the inhibition was 37.2%.

As for `O=c1[nH]c2ccccc2n1C1CCN(CCCC(c2ccc(F)cc2)c2ccc(F)cc2)CC1`, the inhibition was -11.4%.

Take `COc1ccc2ccc(O)c(CN3CC=C(c4ccccc4)CC3)c2c1`: the inhibition stood at 20.6%.

Take `Cc1cccc(OP(=O)(Nc2ccc(F)cc2)Oc2cccc(C)c2)c1`: the inhibition is 25.4%.

Regarding `CCOC(=O)C(O)(c1ccc(NC(=S)NC(=O)c2ccc(Cl)cc2Cl)c(C)c1)C(F)(F)F` (stereo not given), the inhibition was 34%.

Consider `CCn1c(O)c(C(c2ccccn2)c2c(O)n(CC)c(=S)[nH]c2=O)c(=O)[nH]c1=S`, for which the inhibition came out at 0.28%.

Turning to `CCOc1cc(CNCCc2c[nH]c3ccccc23)cc(Cl)c1OCC`, the inhibition is 85.3%.

For the compound `Cc1c(C(c2ccc(Cl)cc2Cl)c2c(O)c3ccccc3oc2=O)c(=O)n(-c2ccccc2)n1C` (stereo not given), the inhibition turned out to be 68.5%.

`CC(C)C12CN3CCN(CC(C3)C1O)C2` (stereo not given): the inhibition amounted to 2.09%.

Consider `CSc1ccc(C(=O)C2CCCN(Cc3cc4ccccc4[nH]3)C2)cc1` (stereo not given), for which the inhibition stood at 64.1%.

For `N=c1c2c(n(Cc3ccc(Cl)cc3Cl)c3c1CCC3)CCCC2`, the inhibition was found to be 63.2%.

For the compound `N[C@@H](Cc1c[nH]c2ccccc12)c1nnc(SCc2ccc(Cl)cc2)o1`, the inhibition stood at 30%.

Turning to `COC(=O)C1CN(C#N)N(c2ccc(Cl)cc2)C12c1ccccc1-c1ccccc12` (stereo not given), the inhibition was -6.46%.

As for `COC(=O)c1c(N)n(Cc2ccc(OC)cc2)c2nc3ccccc3nc12`, the inhibition was -7.78%.

Consider `CSc1nnc(C2CCNCC2)n1C`, for which the inhibition was determined as 8.04%.

Turning to `Clc1ccc2c(c1)C(c1ccccc1Cl)=NCc1nnc(N3CCN(CCOc4ccccc4)CC3)n1-2`, the inhibition is -19.1%.

`CC12CCC3C(CC=C4CC(O)CCC43C)C1C/C(=C\c1ccccc1F)C2=O` (stereo not given): the inhibition stood at 6.63%.

`Cc1cccc(OP(=O)(NCc2ccccc2)Oc2cccc(C)c2)c1`: the inhibition amounted to 28.3%.

On to `c1ccc(-c2[nH]c(-c3ccccc3)[n+](CC3CO3)c2-c2ccccc2)cc1` (stereo not given), for which the inhibition stood at 7.71%.

`CCCCN1C(=O)NC(=O)C2(Cc3c(nc4c(C)cccn4c3=O)N3CCc4ccccc4C32)C1=O` (stereo not given): the inhibition stood at 9.28%.

On to `CC1=NN(c2ccccc2)C(=O)/C1=C/c1c(O)[nH]c(=S)[nH]c1=O`, for which the inhibition turned out to be 8.33%.

Consider `CCOC(=O)CC1=C(C(=O)OCC)C2(C(=O)N1CC(=O)OC)C(C#N)=C(N)Oc1ccccc12` (stereo not given), for which the inhibition turned out to be 25.6%.

Regarding `CN(C)c1ccc(-[n+]2c(-c3ccccc3)cc(-c3ccccc3)cc2-c2ccccc2)cc1`, the inhibition came to 62.4%.

For the compound `CC1CCC(C(C)C)C(OC(=O)COC(=O)c2ccccc2N)C1` (stereo not given), the inhibition is -12%.

As to `CCc1ccc(NP(=O)(Oc2ccccc2F)Oc2ccccc2F)cc1`, the inhibition is 28.7%.

For the compound `Cc1ccc(-n2cc(CNC(C)Cc3cnccn3)c(-c3cccc(C)c3)n2)cc1` (stereo not given), the inhibition was 52.9%.

Consider `CCCCCCCCCOc1ccc2[nH]cc(CCN)c2c1`, for which the inhibition came to 94%.

In the case of `O=C(COC(=O)c1ccc(O)cc1)Nc1ccc(Cl)cc1C(=O)c1ccccc1`, the inhibition came out at 38.5%.

As to `COc1ccc(NP(=O)(Oc2ccc(Cl)cc2)Oc2ccc(Cl)cc2)cc1OC`, the inhibition was -4.56%.

Regarding `O=c1[nH]sc2cc(F)ccc12`, the inhibition came to 67.3%.

With `Cc1oc(-c2ccccc2)nc1CN1C(=O)C(C)N=C(c2ccccc2F)c2cc(Cl)ccc21` (stereo not given), the inhibition was -2.06%.

Take `O=c1c2ccccc2[se]n1-c1ccccc1`: the inhibition is 95.7%.

`O=C(Oc1c(Cl)cc(Cl)c2ccccc12)N1CCCCC1`: the inhibition came to 26.9%.

As to `CCCCCc1nc2c(c(=O)c3ccccc3n2C)c(=O)n1C1CCCCCC1`, the inhibition came to 88.5%.

Consider `O=C(c1ccco1)c1cn(Cc2ccc(Cl)cc2)c2ccccc12`, for which the inhibition stood at 23.1%.

Take `CCC(=O)Nc1ccc(N2CCN(CC)CC2)c(Cl)c1`: the inhibition is -28.9%.

As to `CNC(C(=O)c1ccccc1)C(OC)c1ccccc1` (stereo not given), the inhibition was found to be 4.21%.

In the case of `Clc1ccccc1CN1CCN(c2ccccc2Cl)CC1`, the inhibition stood at 62.5%.

Consider `CC(C)(O)[C@H]1O[C@H]2CC[C@@]3(C)[C@@](O)(CC[C@H]4Cc5c([nH]c6ccccc56)[C@@]43C)C2=CC1=O`, for which the inhibition was 20.8%.

As to `CCC(=Nc1ccc(OC)cc1OC)c1c(O)n(C2CCCCC2)c(=O)[nH]c1=O`, the inhibition was found to be 12.5%.

On to `N=C(N)c1c(O)n(C2CCCCC2)c(=O)n(C2CCCCC2)c1=O`, for which the inhibition stood at 2.9%.

For the compound `C/C(=N\N1CCCCC1c1cccnc1)c1c(O)n(C2CCCCC2)c(=S)[nH]c1=O` (stereo not given), the inhibition is 22.3%.

For `C/C1=C\[C@@H](C)C/C=C/[C@H]2[C@@H]3O[C@]3(C)[C@@H](C)[C@H]3[C@H](Cc4c[nH]c5ccccc45)NC(=O)[C@]32C(=O)/C=C/C(=O)[C@@H]1O`, the inhibition was -20%.

For the compound `CN1C2CCC1/C(=C/c1ccccn1)C(=O)/C2=C\c1ccccn1`, the inhibition was found to be 77%.

Turning to `CCCCn1c(=O)c(C(=O)Nc2nnc(C(C)C)s2)c(O)c2ccccc21`, the inhibition turned out to be 33.1%.

Take `CN(C)c1ccc(/C=C/c2cc[n+](C)c3ccccc23)cc1`: the inhibition was 75.3%.

In the case of `COC(=O)C(O)(c1ccc(NC(=S)NC(=O)c2ccc(Cl)cc2Cl)c(C)c1)C(F)(F)F` (stereo not given), the inhibition amounted to 45.8%.

Regarding `CCCCc1nc2ccccc2c(=O)n1-c1ccc(Cl)cc1[N+](=O)[O-]`, the inhibition is -6.42%.

Regarding `O=P(Nc1cccc(Cl)c1)(Oc1ccccc1)Oc1ccccc1`, the inhibition was 37.9%.

With `CCCCn1c(O)c(/C(CC)=N/N2CCCCC2c2cccnc2)c(=O)[nH]c1=S` (stereo not given), the inhibition was 17.4%.

With `CC[n+]1c(SC)ccc2cc(OC)ccc21`, the inhibition worked out at 0%.

In the case of `O=C1NC(=O)C(CCc2ccncc2)(Cc2cccc(Cl)c2Cl)C(=O)N1c1ccc(Br)cc1` (stereo not given), the inhibition is -0.32%.

For `Cc1cccc(C)c1NC(=O)c1cccn(Cc2ccc3c(c2)OC(F)(F)O3)c1=O`, the inhibition amounted to 51.5%.

For `CCCCCCCSc1cc(OC)c(CCNC)cc1OC`, the inhibition is 86.7%.

In the case of `CCOC(=O)c1c(C)n(Cc2ccccc2)c2ccc(OCC(O)Cn3nc(C)cc3C)cc12` (stereo not given), the inhibition is 13.6%.

Turning to `CCCCCn1c(=O)c(C(=O)Nc2ccccc2S(N)(=O)=O)c(O)c2ccccc21`, the inhibition stood at 53.9%.

On to `CC(C)Oc1cc(-n2c(=S)[nH]c3ccccc3c2=O)c(Cl)cc1Cl`, for which the inhibition is 50.1%.

Take `CCOC(=O)C1=C(NC(=S)NC(=O)c2ccccc2)c2ccccc2CC12CCCC2`: the inhibition worked out at 15%.

`OCCNc1c2c(nc3ccccc13)CCCC2`: the inhibition is 13.3%.

Regarding `CCCC/C(C)=C/[C@@H](NP(=O)(c1ccccc1)c1ccccc1)c1ccccc1`, the inhibition was -1.92%.

Consider `O=c1[nH]c(=S)n(C2CC2)c(O)c1/C=N/Nc1ccccc1`, for which the inhibition came out at 33.9%.

As to `CCC(=NCc1ccc2c(c1)OCO2)c1c(O)n(C2CCCCC2)c(=O)[nH]c1=O`, the inhibition was 34.4%.

As for `CN(CC1COc2ccccc2O1)c1nc(-c2cccnc2)nc2ccccc12` (stereo not given), the inhibition was 67.6%.

Regarding `NS(=O)(=O)c1ccc(N=Cc2c(O)n(C3CCCCC3)c(=O)n(C3CCCCC3)c2=O)cc1`, the inhibition was 81.4%.

Regarding `CCOC(=O)c1c(-n2c(C)cc(C=C3C(=O)NC(=S)NC3=O)c2C)sc2c1CCCC2`, the inhibition was 22.9%.

With `Cc1oc2ccc(OC(=O)N(C)C)cc2c1C(=O)OC(C)C`, the inhibition came to 69.4%.

For the compound `CCn1nc(/C=C/c2ccccc2)nc2c(=O)n(C)c(=O)nc1-2`, the inhibition came out at 89.5%.

In the case of `CCOC(=O)C1SC2(C(F)F)CC1(O)c1c(c(OC)c3occc3c1OC)O2` (stereo not given), the inhibition is 15.7%.

On to `Cc1oc(-c2ccccc2)nc1CN1C(=O)CN=C(c2ccccc2)c2ccccc21`, for which the inhibition came to 2.07%.

Take `CCCCCCn1c(N)c(C(=O)NCCN2CCOCC2)c2nc3ccccc3nc21`: the inhibition came out at 2.85%.

As to `O=C(Nc1ccc(F)cc1)N1CC2CC(C1)c1cccc(=O)n1C2` (stereo not given), the inhibition was -10.4%.

On to `O=c1[nH]c(=S)n(CCC2=CCCCC2)c(O)c1C=NC1CCN(Cc2ccccc2)CC1`, for which the inhibition was 31.6%.

Turning to `C=C(C=O)CC1CC(O)[C@]2(C)OC3CC4OC5C[C@]6(C)O[C@]7(C)CCC8OC9C[C@]%10(C)OC%11C(C)=CC(=O)OC%11CC%10OC9C[C@@H](C)C8OC7CC6O[C@]5(C)CC5OC5C4OC3CC2O1` (stereo not given in full), the inhibition stood at 77.5%.

As to `Cc1oc(-c2ccccc2Cl)nc1CN1C(=O)CN=C(c2ccccc2)c2ccccc21`, the inhibition is -4.44%.

In the case of `O=C1C(=O)c2ccccc2-c2ccccc21`, the inhibition turned out to be 93.6%.

For `O=c1c2ccccc2[nH]c(=S)n1-c1ccc2c(c1)OCO2`, the inhibition is -13.7%.

On to `Cc1c2ccncc2c(C)c2c1[nH]c1ccccc12`, for which the inhibition turned out to be 45.9%.

For the compound `Cc1ccc2c(c1)C1CN(C)CCC1N2C(=O)c1cn(-c2ccccc2)nc1-c1ccccc1` (stereo not given), the inhibition amounted to 26.2%.

Regarding `CCCCn1c(=O)c(C(=O)Nc2ccccc2S(N)(=O)=O)c(O)c2ccccc21`, the inhibition turned out to be 58.4%.

For `CCC(C)(C)n1nnnc1C(c1cccs1)N1CC=C(c2ccc(F)cc2)CC1` (stereo not given), the inhibition was 57.1%.

As to `Clc1ccc2c(c1)C(c1ccccc1Cl)=NCc1nnc(N3CCN(CCSc4ccccc4)CC3)n1-2`, the inhibition is 1.05%.

Turning to `CCOC(=O)c1c(NC(NC(=O)CF)C(Cl)(Cl)Cl)sc2c1CCCC2` (stereo not given), the inhibition is 30.9%.

Take `CC/C(=C\C=C\[C@@H]1C=C[C@@H]2CCC[C@H]2[C@@H]1C(=O)c1ccc[nH]1)[C@@H]1O[C@@H]([C@@H](C)C(=O)O)CC[C@@H]1C`: the inhibition was found to be 75.8%.

As to `CCCCC/C=C\C/C=C\C/C=C\C/C=C\CCCC(=O)Nc1ccc(O)cc1`, the inhibition worked out at 12.4%.

`COc1cccc(NP(=O)(Oc2ccc(Cl)cc2)Oc2ccc(Cl)cc2)c1`: the inhibition was 23.5%.

Source of the values: PubChem BioAssay AID1362 (SRMLSC, 2008).
